Variants at the background level are over-represented here.
B1: glmS ribozyme (parent)
chain: AUAAAAGCGCCAGAACUACAGAAAUGUAGUUGACGAGGAGGAGGUUUAUCGAAUUUUCGGCGGAUGCCUCCAAA

What was measured:
Details in all cases: with glucosamine-6-phosphate
glucosamine-6-phosphate [1] = variants of: B1; assay: self-cleavage kobs at 40 uM GlcN6P; higher = faster cleavage; RNA array
Outline: (§1)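 Glucosamine-6-phosphate (40 μM to 10 mM) in HEPES/KCl/Mg(OAc)2 buffer was flowed over sequenced MiSeq chips, and tiles were imaged over ~14 h. Barcoded ribozyme variants there had been transcribed in situ by E. coli RNA polymerase and were tracked through a hybridised Cy3 probe at 37 °C. One- or two-exponential decay fits to per-tile medians, normalised to baseline and to non-cleaving reference variants, gave kobs. kcat and KM came from weighted Michaelis–Menten fits across concentrations.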

glucosamine-6-phosphate [2] = variants of: B1; assay: self-cleavage kobs at 640 uM GlcN6P; higher = faster cleavage; RNA array
Outline: as §1

glucosamine-6-phosphate [3] = variants of: B1; assay: self-cleavage kobs at 160 uM GlcN6P; higher = faster cleavage; RNA array
Outline: as §1

glucosamine-6-phosphate [4] = variants of: B1; assay: self-cleavage kobs at 10000 uM GlcN6P; higher = faster cleavage; RNA array
Outline: as §1

glucosamine-6-phosphate [5] = variants of: B1; assay: self-cleavage kobs at 2500 uM GlcN6P; higher = faster cleavage; RNA array
Outline: as §1

Row | Variant | self-cleavage kobs at 40 uM GlcN6P (glucosamine-6-phosphate [1]) [s⁻¹] | self-cleavage kobs at 640 uM GlcN6P (glucosamine-6-phosphate [2]) [s⁻¹] | self-cleavage kobs at 160 uM GlcN6P (glucosamine-6-phosphate [3]) [s⁻¹] | self-cleavage kobs at 10000 uM GlcN6P (glucosamine-6-phosphate [4]) [s⁻¹] | self-cleavage kobs at 2500 uM GlcN6P (glucosamine-6-phosphate [5]) [s⁻¹]
1 | C10U C16U G38A A39G | < 1e-05 | – | – | – | –
2 | C10G C71U | < 1e-05 | < 1e-05 | < 1e-05 | < 1e-05 | –
3 | C10A U47C | < 1e-05 | – | < 1e-05 | < 1e-05 | –
4 | C10A G38U G44A C61G | < 1e-05 | – | – | – | –
5 | C11G A15U C34G A39U A48G | < 1e-05 | – | – | – | –
6 | C10G A14U G29U | < 1e-05 | – | – | < 1e-05 | –
7 | C10U C11A G43A U45G U46G | < 1e-05 | < 1e-05 | – | < 1e-05 | –
8 | C11G A12C G38A | < 1e-05 | – | – | – | –
9 | C10A G37C U47C G60C | < 1e-05 | – | – | – | –
10 | G9U C68U | < 1e-05 | < 1e-05 | < 1e-05 | < 1e-05 | < 1e-05
11 | G9U C16U G43U A53U | < 1e-05 | – | – | < 1e-05 | –
12 | C10A G38A G41C C68A | < 1e-05 | – | – | – | –
13 | C11A G51A | < 1e-05 | < 1e-05 | – | < 1e-05 | –
14 | C11A G51C | < 1e-05 | – | – | < 1e-05 | –
15 | C10A G38C G60U C71U | < 1e-05 | – | – | – | –
16 | C10G C16G G35C A39C | < 1e-05 | – | – | < 1e-05 | –
17 | C10A G37A | < 1e-05 | < 1e-05 | – | < 1e-05 | < 1e-05
18 | C10A G41U | < 1e-05 | < 1e-05 | < 1e-05 | < 1e-05 | < 1e-05
19 | C10A U30G U31G G40A G51U | < 1e-05 | – | – | < 1e-05 | –
20 | C11A G37C | < 1e-05 | < 1e-05 | – | – | < 1e-05
21 | C10A U30A C61U G66U | < 1e-05 | – | – | – | –
22 | C10G U30A | < 1e-05 | < 1e-05 | < 1e-05 | – | –
23 | G9U G40C | < 1e-05 | < 1e-05 | < 1e-05 | < 1e-05 | –
24 | C10G U65G | < 1e-05 | < 1e-05 | < 1e-05 | < 1e-05 | < 1e-05

Row | Variant | self-cleavage kobs at 40 uM GlcN6P (glucosamine-6-phosphate [1]) [s⁻¹] | self-cleavage kobs at 640 uM GlcN6P (glucosamine-6-phosphate [2]) [s⁻¹] | self-cleavage kobs at 160 uM GlcN6P (glucosamine-6-phosphate [3]) [s⁻¹] | self-cleavage kobs at 10000 uM GlcN6P (glucosamine-6-phosphate [4]) [s⁻¹] | self-cleavage kobs at 2500 uM GlcN6P (glucosamine-6-phosphate [5]) [s⁻¹]
25 | C10U A14G A52U G60U | < 1e-05 | – | – | < 1e-05 | < 1e-05
26 | C10A A52U | < 1e-05 | < 1e-05 | < 1e-05 | < 1e-05 | < 1e-05
27 | C10U U55A C70U | < 1e-05 | – | < 1e-05 | – | –
28 | G9U U57C C61G | < 1e-05 | – | – | < 1e-05 | –
29 | G9U G29C U30C | < 1e-05 | < 1e-05 | < 1e-05 | < 1e-05 | < 1e-05
30 | C10U C50A U55A | < 1e-05 | – | – | < 1e-05 | –
31 | C10U C50U C68G | < 1e-05 | – | – | – | –
32 | C10U G41U A53U | < 1e-05 | – | < 1e-05 | < 1e-05 | –
33 | C10G U49A A52G A64C | < 1e-05 | – | – | < 1e-05 | < 1e-05
34 | C11G C16G | < 1e-05 | – | < 1e-05 | < 1e-05 | < 1e-05
35 | C11G C16A | < 1e-05 | < 1e-05 | < 1e-05 | – | < 1e-05
36 | C11G A14U | < 1e-05 | – | < 1e-05 | – | –
37 | C10A U55C U56C | < 1e-05 | – | – | < 1e-05 | –
38 | C10U U54A U57C | < 1e-05 | – | – | – | –
39 | C10A G29C | < 1e-05 | < 1e-05 | < 1e-05 | < 1e-05 | –
40 | C10G G63U | < 1e-05 | < 1e-05 | < 1e-05 | – | < 1e-05
41 | C11G A12C G43U G44A A48C | < 1e-05 | – | – | < 1e-05 | –
42 | C11G A39U C50G | < 1e-05 | < 1e-05 | < 1e-05 | < 1e-05 | < 1e-05
43 | C11G A36U | < 1e-05 | < 1e-05 | – | < 1e-05 | –
44 | C10G G29U C50A G59A G63C | < 1e-05 | – | – | – | –
45 | C10G A14G A48U | < 1e-05 | – | – | – | –
46 | C10G G66A | < 1e-05 | – | – | – | –
47 | C10U G38A C71U | < 1e-05 | – | – | < 1e-05 | –
48 | C10U G43C C50U C70U | < 1e-05 | – | – | – | –

— the supplement of paper PMC7125110
